The whole screen tested about 50,000 compounds, of which about 800 (1.6%) showed an effect of 50% or more. The list shows a part of the results.

This assay deals with Bcl-2-like protein 10 (Homo sapiens) (UniProt Q9HD36). Description: TR3 peptide-Bcl-B binding displacers, biochemical primary FP assay, phenotype converters (AID 1240).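 Also: 0% = Bcl-B with tracer peptide and DMSO and 100% = tracer peptide lacking Bcl-B.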 Conditions: GST-Bcl-B / FITC-TR3 peptide fluorescence polarization; stronger effect = higher value; compound at 3.75 mg/L. (Polarisation of emitted light reports the rotation of a fluorescent probe.)
Sequence of UniProt Q9HD36 (Q9HD36 whole entry, looked up): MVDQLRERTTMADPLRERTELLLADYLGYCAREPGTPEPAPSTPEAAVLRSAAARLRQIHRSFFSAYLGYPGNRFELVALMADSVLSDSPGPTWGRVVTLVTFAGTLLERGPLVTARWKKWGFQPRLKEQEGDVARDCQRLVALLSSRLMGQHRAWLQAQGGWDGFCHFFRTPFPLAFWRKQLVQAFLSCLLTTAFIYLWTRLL
Regarding `Cc1ccc(OCC(=O)NCc2ccc(F)cc2)c(C)c1`, the displacement was -1.7%.

With `Cc1ccccc1OCCCCN1CCCC1`, the displacement came out at 1.1%.

For the compound `CC1=C(C#N)c2nc(N)c(C#N)c(C)c2/C1=C\c1ccc(-c2cccc([N+](=O)[O-])c2)o1`, the displacement was -4.6%.

For the compound `COC(=O)C1=C(C)NC(=O)NC1c1cc(OC)c(OC)cc1OC` (stereo not drawn), the displacement is -4.2%.

On to `O=C(COc1ccc(Cl)cc1)Nc1ccccc1C(F)(F)F`, for which the displacement was -7.8%.

With `CCOC(=O)C1=C(C)NC(SC)=NC1c1ccc(OC)cc1` (stereo not drawn), the displacement is -15%.

On to `O=C(Nc1nc(-c2ccc3ccccc3c2)cs1)c1ccncc1`, for which the displacement worked out at 5.9%.

As for `Cc1c(C(=O)NC(c2ccccc2)c2ccccc2)cccc1[N+](=O)[O-]`, the displacement is -1.5%.

For the compound `O=C(Nc1ccc(Cl)cc1Cl)c1nn2c(c1Br)NC(c1ccccc1)CC2C(F)(F)F` (stereo not drawn), the displacement was determined as 6.2%.

In the case of `O=C(O)/C=C\C(=O)Nc1ccccc1Br`, the displacement came to 10.3%.

As to `COC(=O)c1c(N)sc(C(=O)Nc2ccc(OC)cc2)c1C`, the displacement was -5.1%.

For `COc1ccc(CC(=O)Nc2cccc(I)c2)cc1OC`, the displacement was -9.2%.

Regarding `O=C(COc1ccccc1[N+](=O)[O-])N/N=C/c1cc(I)ccc1O`, the displacement amounted to 25.9%.

For `COc1cc([N+](=O)[O-])ccc1NC(=O)COc1ccc(-c2ccc(C)cc2)cc1`, the displacement is -9%.

As for `COc1ccc(-c2nnnn2C)cc1S(=O)(=O)Nc1ccc(Br)cc1`, the displacement was 7.3%.

For the compound `CN1C(=O)/C(=C\c2ccc(Sc3ccc(Cl)cc3)o2)SC1=S`, the displacement is -6.7%.

In the case of `O=C1NC(=S)S/C1=C/c1cc(Br)ccc1OCc1ccccc1Cl`, the displacement turned out to be 2.9%.

Turning to `CCCCCCNC(=O)CN1C(=O)c2ccccc2C1=O`, the displacement came to 6.7%.

`CC1(C)c2ssc(=S)c2-c2ccccc2N1C(=O)CN1CCOCC1`: the displacement was 6.4%.

For `O=S(=O)(/N=C(/Nc1cccc(O)c1)c1ccccc1)c1ccccc1`, the displacement was found to be 10.6%.

For the compound `CCC1(CO)COC(c2ccco2)OC1` (stereo not drawn), the displacement was 4.7%.

Take `COC(=O)c1ccccc1NC(=O)c1ccc(CN2CCc3ccccc3C2)cc1`: the displacement came out at 9.2%.

In the case of `CCCN1CCC(=NNC(=O)CCC(=O)NN=C2CCN(CCC)CC2)CC1`, the displacement was -21.5%.

For `Cc1ccc(N/C(N)=N\c2nc(C)cc(C)n2)c(C)c1`, the displacement is -4%.

Take `O=c1[nH]c(=O)n(-c2ccc(Cl)cc2)c(O)c1/C=C1/C=CC=N1`: the displacement is -46%.

As to `COC(=O)c1ccc(C(=O)OC)c(NC(=O)c2ccc(C)c([N+](=O)[O-])c2)c1`, the displacement came to 22.3%.

Turning to `Nc1cc(-c2nc3ccccc3s2)ccc1Cl`, the displacement is -4.5%.

Turning to `Cc1cccc(C2(c3cccc(C)c3)CC2C(=O)Nc2ccccc2F)c1` (stereo not drawn), the displacement is -2.5%.

As for `COc1nccnc1NS(=O)(=O)c1ccc(NC(=O)c2ccc(C(C)=O)cc2)cc1`, the displacement was -3.4%.

On to `O=c1c2c(nc3cc(-c4ccc(Cl)cc4)[nH]n13)CCCC2`, for which the displacement is -4.5%.

As to `CC1Cn2c(nc3sc4c(c3c2=O)CC(C)(C)OC4)N1CCO` (stereo not drawn), the displacement was -0.7%.

With `N#Cc1c(N)[nH]c(=S)c(C#N)c1-c1cccc(F)c1`, the displacement turned out to be 0.6%.

As for `Cc1cc(OCC(=O)Nc2ccccc2[N+](=O)[O-])cc(C)c1Cl`, the displacement was 7%.

For the compound `C=CCN1C(=O)/C(=C\c2ccc(OC)c3ccccc23)C(=O)NC1=S`, the displacement was -7.2%.

For the compound `COc1ccccc1C(=O)NNC(=O)c1ccc([N+](=O)[O-])cc1`, the displacement was found to be 3.3%.

On to `Cc1cc(C)cc(NC(=O)COc2ccc(Cl)cc2C)c1`, for which the displacement turned out to be 2.3%.

For the compound `COc1ccc(C2/C(=C(\O)c3ccc(C)cc3)C(=O)C(=O)N2c2ccc(O)cc2)cc1` (stereo not drawn), the displacement was 5.7%.

Consider `O=C1c2c(Cl)c(Cl)c(Cl)c(Cl)c2C(=O)N1c1ncccn1`, for which the displacement was determined as 8.9%.

Consider `c1ccc2c(c1)[nH]c1nc(SCCCN3CCOCC3)nnc12`, for which the displacement is -2.1%.

For `Clc1ccc(OCCn2ccnc2)cc1`, the displacement amounted to 14.8%.

In the case of `CC1=NNC(=O)C1CCC(=O)N/N=C(\C)c1ccc(Br)cc1` (stereo not drawn), the displacement was -11.1%.

Turning to `CCOC(=O)C1=C(C)N(CCOC)C(=O)/C1=C\c1ccccc1F`, the displacement is 5.4%.

Turning to `CCOC(=O)c1cnc(-c2ccccc2)nc1Nc1ccccc1`, the displacement was -10.3%.

For the compound `CCN1CCN(Cc2c(O)ccc3c(=O)c(-c4ccccc4OC)c(C(F)(F)F)oc23)CC1`, the displacement came to 2.1%.

In the case of `Cc1ccccc1OCC(=O)Nc1cccc(-c2cc3ccccc3oc2=O)c1`, the displacement was 1.7%.

For `CC1=C(C(=O)Nc2ccccc2)C(c2cccs2)n2c(s/c(=C\c3cccs3)c2=O)=N1` (stereo not drawn), the displacement stood at 14.9%.

As for `COc1ccccc1N1C(=O)c2ccc(C(=O)Nc3ccc(Br)cc3)cc2C1=O`, the displacement amounted to 7.4%.

With `Cc1cc(C(=O)c2ccc(Br)cc2)ccc1S(=O)(=O)Nc1cccc([N+](=O)[O-])c1`, the displacement is -11.9%.

Consider `CCOC(=O)c1ccc(Nc2ncnc3ccc(C)cc23)cc1`, for which the displacement is -2%.

Turning to `CN1c2ccccc2C(C)(C)C12C=Nc1c(ccc3cc4ccccc4cc13)O2` (stereo not drawn), the displacement turned out to be 10.5%.

Consider `CCCCOC(=O)c1ccc(NCCC(=O)c2cccc([N+](=O)[O-])c2)cc1`, for which the displacement is -8%.

Turning to `Cc1sc(NC(=O)c2ccccc2C(=O)O)c(C#N)c1C`, the displacement was -8.5%.

In the case of `Cc1ccc(C)c(NC(=O)CN(c2ccc(C)c(Cl)c2)S(C)(=O)=O)c1`, the displacement was 1%.

With `Cc1ccc(S(=O)(=O)NC2CCCCCCC2)cc1`, the displacement is -3.4%.

Turning to `COc1ccccc1CNC(=O)/C=C/c1cccc([N+](=O)[O-])c1`, the displacement is 0%.

On to `CC(C)c1cc(C(C)C)c(S(=O)(=O)N2CCNCC2)c(C(C)C)c1`, for which the displacement was found to be 11.6%.

Regarding `Cc1cc(OCC(=O)O)cc(C)c1Cl`, the displacement came to 5.2%.

Regarding `O=C(O)c1ccc(COc2ccc3ccc(=O)oc3c2)cc1`, the displacement was 10.5%.

`O=C(Nc1ncc(Cc2ccc(F)cc2)s1)c1ccccc1Br`: the displacement stood at 11.8%.

Regarding `CCOC(=O)c1ccc(-c2ccc(/C=c3\sc4nc5ccccc5n4c3=O)o2)cc1`, the displacement was 9.1%.

For the compound `O=C(/C=C/c1ccc(F)cc1)Nc1cccc2cccnc12`, the displacement was 16.9%.

In the case of `COc1ccc(C2Nc3ccccc3NC3=C2C(=O)CC(c2ccccc2)C3)c(OC)c1` (stereo not drawn), the displacement turned out to be 5.9%.

For the compound `Oc1cc(N=C/C=C/c2ccc(Cl)cc2)ccc1-c1nc2ccccc2s1`, the displacement came out at 4.7%.

As for `CCOc1ccc(NC(=O)CSc2nc3ccccc3s2)cc1`, the displacement was -10.1%.

In the case of `COc1cc(S(=O)(=O)N2CCC(C)CC2)c(OC)cc1Cl`, the displacement is -7.4%.

Regarding `O=[N+]([O-])c1ccc2c(c1)S(=O)(=O)N=C2Nc1cccnc1`, the displacement is 11.6%.

Regarding `COc1ccc(C2/C(=C(/O)c3ccc(C)cc3)C(=O)C(=O)N2CCCn2ccnc2)c(OC)c1` (stereo not drawn), the displacement stood at 2.9%.

Turning to `O=C(Nc1ccc(Cc2ccncc2)cc1)c1ccc2ccccc2n1`, the displacement was -3.7%.

On to `CC12C(=O)C(C)(C(c3ccccc3)=C1c1ccccc1)C1C(=O)N(c3cccc(C(F)(F)F)c3)C(=O)C12` (stereo not drawn), for which the displacement amounted to 2.6%.

Consider `CCc1ccccc1NC(=O)COc1cccc(C)c1`, for which the displacement stood at 2.1%.

Regarding `O=C(Nc1ccccc1F)c1cncc(Br)c1`, the displacement was 3.9%.

In the case of `S=C(NCC1CCCO1)Nc1ccccc1` (stereo not drawn), the displacement amounted to 7.4%.

As to `O=c1cccc(-c2ccc(Br)cc2)o1`, the displacement amounted to 18.9%.

In the case of `CCCC12C(=O)C(C)(C(c3ccccc3)=C1c1ccccc1)C1C(=O)N(c3ccccc3Cl)C(=O)C12` (stereo not drawn), the displacement worked out at 12.1%.

Take `O=S1(=O)CCC(NC(=S)N/N=C/c2cccc3ccccc23)C1` (stereo not drawn): the displacement was 5.1%.

Regarding `COc1ccc(OC)c(C2/C(=C(\O)c3ccccc3)C(=O)C(=O)N2CCCC(=O)O)c1` (stereo not drawn), the displacement was -7.1%.

Regarding `O=C1CC(N2CCN(c3ccc([N+](=O)[O-])cc3)CC2)C(=O)N1c1ccc(Br)cc1` (stereo not drawn), the displacement was 25.5%.

Turning to `COc1ccc(CNS(=O)(=O)c2ccc(OC)cc2)cc1`, the displacement stood at 9.2%.

Turning to `O=C(O)c1cccc(-c2ccc(C=C3C(=O)c4ccccc4C3=O)o2)c1`, the displacement was -2.7%.

As to `CCOC(=O)/C(C(=O)Nc1ccc(Cl)cc1Cl)=C1\NC(C)(C)Cc2ccccc21`, the displacement was found to be 7.9%.

As to `COc1ccc(C2=C/C(=C\c3cccnc3)C(=O)O2)cc1`, the displacement came to 8.2%.

Take `Cc1ccc(N2C(=O)NC(=O)/C(=C\c3ccc(N(C)C)c(Br)c3)C2=O)cc1`: the displacement stood at 10.1%.

Take `Cc1ccc2ccc(S(=O)(=O)NCc3cccnc3)cc2c1`: the displacement came to 6.7%.

For the compound `Cc1n[nH]c(=S)n(/N=C/c2ccccn2)c1=O`, the displacement is -12.6%.

In the case of `Cn1nnnc1SCc1c(Cl)cccc1Cl`, the displacement was determined as 1.6%.

`CCOC(=O)C1=C(C)N=c2s/c(=C\c3ccccc3)c(=O)n2C1c1ccc(F)cc1` (stereo not drawn): the displacement is 2.9%.

On to `Cc1ccc(-n2[nH]c(C)c(C=Nc3ccc(S(=O)(=O)Nc4nccs4)cc3)c2=O)cc1`, for which the displacement is 4.6%.

As to `CC1=C(C(=O)OCC2CCCO2)C(c2cccc(C(F)(F)F)c2)C2=C(CC(C)(C)CC2=O)N1` (stereo not drawn), the displacement stood at 1.1%.

Regarding `CCOc1ccc(/C=N\NC(=O)c2ccc(Br)cc2)c(O)c1`, the displacement was 6.9%.

Turning to `FC(F)(F)c1ccccc1C=NN1CCN(c2ccccn2)CC1`, the displacement was -3.3%.

As to `O=c1c(C=NCC2CCCO2)c(C(F)(F)F)[nH]n1-c1nc2ccccc2s1` (stereo not drawn), the displacement is -10.9%.

As to `CCOC(=O)c1ccc(NC(=S)NC(NC(=O)c2ccc(C)cc2)C(Cl)(Cl)Cl)cc1` (stereo not drawn), the displacement was -23.6%.

Turning to `Cn1cc(/C=C/C(=O)c2ccc(Cl)cc2)c2ccccc21`, the displacement is 20%.

Consider `c1cncc(CN2CCN(Cc3c[nH]c4ccccc34)CC2)c1`, for which the displacement was -15.8%.

Regarding `C/C(=N\N=C1\NC(=O)C(CC(=O)Nc2ccc(C)c(Cl)c2)S1)C(C)C` (stereo not drawn), the displacement stood at 7.8%.

Consider `COc1ccc(/C=C2/C(=O)NN(c3ccc(C)c(C)c3)C2=O)cc1OC`, for which the displacement came out at 2%.

Consider `Cc1ccc(C(=O)N(C)c2ccccc2)cc1[N+](=O)[O-]`, for which the displacement stood at 10.7%.

Consider `COc1cc(/C=N/n2cnnc2)ccc1Oc1ccc(C(F)(F)F)cc1[N+](=O)[O-]`, for which the displacement was 12.2%.

As for `COc1ccccc1N1CCN(C(=O)COc2ccc(Br)cc2)CC1`, the displacement is 4.1%.

Take `CC1(C)CC(=O)C2=C(C1)c1c(ccc3ccccc13)NC2c1ccc(N2CCOCC2)cc1` (stereo not drawn): the displacement worked out at 9.1%.

For the compound `CSc1ccc(CN2CCN(C(=O)c3ccco3)CC2)cc1`, the displacement was -13.1%.

For `O=C(Nc1ccc2oc(-c3cccnc3)nc2c1)c1cc(I)ccc1Cl`, the displacement was -5.8%.

`COc1cccc(OC)c1C(=O)Nc1cc(Cl)c(Cl)cc1Cl`: the displacement is -7.1%.

Turning to `O=C(Nc1ccc(Cl)c(Cl)c1)Nn1cnnc1`, the displacement is 12.7%.

For the compound `O=C1CC(c2ccccc2)CC2=C1C(c1ccc(O)cc1)Nc1ccc(C(=O)c3ccccc3)cc1N2` (stereo not drawn), the displacement was -1.7%.

Turning to `COc1cc(/C=C2/SC(=S)NC2=O)cc(Br)c1OCc1ccccc1F`, the displacement is -17.3%.

In the case of `O=C1CSC(c2ccc3c(c2)OCO3)N1c1ccc(Cl)c(Cl)c1` (stereo not drawn), the displacement is -1.5%.

For `COc1ccc(Cl)cc1C(=O)Nc1ccc(Nc2ccccc2)cc1`, the displacement was determined as 12.9%.

For the origin of these results see PubChem BioAssay AID1240 (Sanford-Burnham Center for Chemical Genomics, 2008).
